Experimental data reported in a collection of fitness landscapes (doi:10.1016/j.celrep.2020.107928).
The full ranking holds about 81,000 sequences; the median of “one-hybrid fitness for binding parS DNA” is about -0.17, and the highest 2% start at about 0.51. Some of the results follow.

B1: Caulobacter ParB omega fusion; a variant is named by its letters at X, in order, B8GW30 (parent)
chain: MESVVVGEPGMSEGRRGLGRGLSALLGEVDAAPAQAPGEQLGGSREAPIEILQRNPDQPRRTFREEDLEDLSNSIREKGVLQPILVRPSPDTAGEYQIVAGERAWRAAQRAGLKTVPIMVRELDDLAVLEIGIIENVQRADLNVLEEALSYKVLMEKFERTQENIAQTIGKSXSHVANXMRLLXLPDEVQSYLVSGELTAXHARAIAAAADPVALAKQIIEGGLSVRETEALARKAPNLSAGKSKGGRPPRVKDTDTQALESDLSSVLGLDVSIDHRGSTGTLTITYATLEQLDDLCNRLTRGI

Variants of: B1
Experiment: one-hybrid fitness for binding parS DNA (scaled: cognate 1, non-cognate 0); higher = stronger binding
Details: with parS DNA site
Summary of the method: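 Fitness is the rescaled log change in variant-to-wild-type read ratio, measured by Illumina sequencing of plasmids before and after bacterial one-hybrid selection. The scale puts cognate at 1 and non-cognate at 0. Selection of Caulobacter ParB libraries, four specificity codons randomised, took place in E. coli USO with a HIS3 reporter, site 19 bp from the promoter, over 48 hours at 37°C on M9-minus-histidine with 0.1 mM IPTG and 5 mM 3-AT.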

| Variant | one-hybrid fitness for binding parS DNA |
| --- | --- |
| MHLI | ≤ 0.2 |
| TLVG | ≤ 0.2 |
| VKYA | ≤ 0.2 |
| RKWW | 0.244 |
| AEPE | ≤ 0.2 |
| KCEI | ≤ 0.2 |
| DDRY | ≤ 0.2 |
| NYNT | ≤ 0.2 |
| MCKR | ≤ 0.2 |
| TKPR | ≤ 0.2 |
| HVDR | ≤ 0.2 |
| LDLC | ≤ 0.2 |
| NITD | ≤ 0.2 |
| MYHS | ≤ 0.2 |
| IGVR | ≤ 0.2 |
| PTKY | ≤ 0.2 |
| YVAW | ≤ 0.2 |
| IMYD | ≤ 0.2 |
| DGVK | ≤ 0.2 |
| RQVS | 0.937 |
| FPKS | ≤ 0.2 |
| LPTL | ≤ 0.2 |
| SNSE | ≤ 0.2 |
| SHHP | ≤ 0.2 |
| NICT | ≤ 0.2 |

| Variant | one-hybrid fitness for binding parS DNA |
| --- | --- |
| PAIC | ≤ 0.2 |
| QYAY | ≤ 0.2 |
| AFTE | ≤ 0.2 |
| QPSS | ≤ 0.2 |
| YCSF | ≤ 0.2 |
| HFMG | ≤ 0.2 |
| HYLY | ≤ 0.2 |
| CLVD | ≤ 0.2 |
| DSWV | ≤ 0.2 |
| ALRR | ≤ 0.2 |
| HNNV | ≤ 0.2 |
| LSQY | ≤ 0.2 |
| CMTG | ≤ 0.2 |
| HGTE | ≤ 0.2 |
| HRQS | 0.374 |
| WKRG | ≤ 0.2 |
| AGRI | ≤ 0.2 |
| LTKV | ≤ 0.2 |
| RCVL | ≤ 0.2 |
| EYLS | ≤ 0.2 |
| TPGL | ≤ 0.2 |
| PETT | ≤ 0.2 |
| KTLR | ≤ 0.2 |
| FVAG | ≤ 0.2 |
| CLMF | ≤ 0.2 |

| Variant | one-hybrid fitness for binding parS DNA |
| --- | --- |
| VESW | ≤ 0.2 |
| KVAR | ≤ 0.2 |
| EARP | ≤ 0.2 |
| DIHE | ≤ 0.2 |
| PCLF | ≤ 0.2 |
| PPCA | ≤ 0.2 |
| AWPY | ≤ 0.2 |
| KRMF | ≤ 0.2 |
| KDHT | ≤ 0.2 |
| TPKN | ≤ 0.2 |
| FGKR | ≤ 0.2 |
| PADY | ≤ 0.2 |
| SSVF | ≤ 0.2 |
| TLCN | ≤ 0.2 |
| HDNG | ≤ 0.2 |
| IMNR | ≤ 0.2 |
| SHKF | ≤ 0.2 |
| PQCN | ≤ 0.2 |
| TMPW | ≤ 0.2 |
| RRMH | ≤ 0.2 |
| QNMS | ≤ 0.2 |
| NESR | ≤ 0.2 |
| EGKC | ≤ 0.2 |
| HLRY | ≤ 0.2 |
| EGPF | ≤ 0.2 |

| Variant | one-hybrid fitness for binding parS DNA |
| --- | --- |
| FFVS | ≤ 0.2 |
| ISEC | ≤ 0.2 |
| QTHF | ≤ 0.2 |
| YRKK | ≤ 0.2 |
| GALN | ≤ 0.2 |
| FMIR | ≤ 0.2 |
| HDTN | ≤ 0.2 |
| GFSS | ≤ 0.2 |
| ESRA | ≤ 0.2 |
| DQYR | ≤ 0.2 |
| SGVA | ≤ 0.2 |
| SHIK | ≤ 0.2 |
| FDRF | ≤ 0.2 |
| RCHI | ≤ 0.2 |
| RHWP | ≤ 0.2 |
| TIDC | ≤ 0.2 |
| TPAT | ≤ 0.2 |
| APRC | ≤ 0.2 |
| CFTY | ≤ 0.2 |
| WSRY | ≤ 0.2 |
| EPQG | ≤ 0.2 |
| KKMS | ≤ 0.2 |
| NHMG | ≤ 0.2 |
| GGVS | ≤ 0.2 |
| SGSW | ≤ 0.2 |

| Variant | one-hybrid fitness for binding parS DNA |
| --- | --- |
| RGAQ | ≤ 0.2 |
| CPQS | ≤ 0.2 |
| RHGC | 0.896 |
| WVIS | ≤ 0.2 |
| GHGR | ≤ 0.2 |
| KLHK | ≤ 0.2 |
| MCWG | ≤ 0.2 |
| NPRH | ≤ 0.2 |
| PMKI | ≤ 0.2 |
| CRYL | ≤ 0.2 |
| NRQL | ≤ 0.2 |
| VAAI | ≤ 0.2 |
| KMRV | ≤ 0.2 |
| NVRA | ≤ 0.2 |
| DGPL | ≤ 0.2 |
| VPPY | ≤ 0.2 |
| WVQL | ≤ 0.2 |
| PLLY | ≤ 0.2 |
| MEAY | ≤ 0.2 |
| TTMQ | ≤ 0.2 |
| TSYR | ≤ 0.2 |
| RDGK | ≤ 0.2 |
| TEQY | ≤ 0.2 |
| WMRR | ≤ 0.2 |
| DPNT | ≤ 0.2 |

| Variant | one-hybrid fitness for binding parS DNA |
| --- | --- |
| RAWF | 0.245 |
| RRLS | 0.701 |
| CVPF | ≤ 0.2 |
| VSLI | ≤ 0.2 |
| INNL | ≤ 0.2 |
| WDKG | ≤ 0.2 |
| NFKT | ≤ 0.2 |
| LLSG | ≤ 0.2 |
| AIAV | ≤ 0.2 |
| CEMR | ≤ 0.2 |
| TFYV | ≤ 0.2 |
| RVKL | ≤ 0.2 |
| AWQR | ≤ 0.2 |
| FVQV | ≤ 0.2 |
| NEFY | ≤ 0.2 |
| KANV | ≤ 0.2 |
| MFRY | ≤ 0.2 |
| RIIW | 0.206 |
| RHDN | 0.33 |
| NHCR | ≤ 0.2 |
| GHLY | ≤ 0.2 |
| AQKW | ≤ 0.2 |
| QYSW | ≤ 0.2 |
| PLSK | ≤ 0.2 |
| MPVC | ≤ 0.2 |

| Variant | one-hybrid fitness for binding parS DNA |
| --- | --- |
| RCTI | ≤ 0.2 |
| LAQK | ≤ 0.2 |
| GRHS | ≤ 0.2 |
| LVRL | ≤ 0.2 |
| FAPL | ≤ 0.2 |
| ANMG | ≤ 0.2 |
| FQAL | ≤ 0.2 |
| TQQM | ≤ 0.2 |
| VNYL | ≤ 0.2 |
| QRLH | ≤ 0.2 |
| WHPD | ≤ 0.2 |
| EEDR | ≤ 0.2 |
| TSQL | ≤ 0.2 |
| SNEF | ≤ 0.2 |
| CNVC | ≤ 0.2 |
| CTIF | ≤ 0.2 |
| YRVR | ≤ 0.2 |
| RGLD | ≤ 0.2 |
| HRIL | ≤ 0.2 |
| KPWG | ≤ 0.2 |
| FLGR | ≤ 0.2 |
| LRVI | ≤ 0.2 |
| LFPL | ≤ 0.2 |
| AGFT | ≤ 0.2 |
| YGKR | ≤ 0.2 |

| Variant | one-hybrid fitness for binding parS DNA |
| --- | --- |
| PYRA | ≤ 0.2 |
| LMAA | ≤ 0.2 |
| GETW | ≤ 0.2 |
| PRQL | ≤ 0.2 |
| KIIG | ≤ 0.2 |
| RSLS | 1.01 |
| YMLC | ≤ 0.2 |
| TTCV | ≤ 0.2 |
| GCMT | ≤ 0.2 |
| NTWS | ≤ 0.2 |
| RACC | 0.962 |
| GGLR | ≤ 0.2 |
| AMTY | ≤ 0.2 |
| KEEV | ≤ 0.2 |
| SAEF | ≤ 0.2 |
| FNAC | ≤ 0.2 |
| ARDS | ≤ 0.2 |
| DHPV | ≤ 0.2 |
| RFPT | 0.376 |
| KMKK | ≤ 0.2 |
